The BET-seq Pho4 binding data (Le et al. 2018)
This is one part of the list. Values were computed here from the reads of four pooled replicates and scatter widely.

Each sequence was assayed against T1, Pho4 (S. cerevisiae) (UniProt P07270) (assay: relative binding free energy (BET-seq); higher = weaker binding). Conditions: reference: library average.
T1 sequence: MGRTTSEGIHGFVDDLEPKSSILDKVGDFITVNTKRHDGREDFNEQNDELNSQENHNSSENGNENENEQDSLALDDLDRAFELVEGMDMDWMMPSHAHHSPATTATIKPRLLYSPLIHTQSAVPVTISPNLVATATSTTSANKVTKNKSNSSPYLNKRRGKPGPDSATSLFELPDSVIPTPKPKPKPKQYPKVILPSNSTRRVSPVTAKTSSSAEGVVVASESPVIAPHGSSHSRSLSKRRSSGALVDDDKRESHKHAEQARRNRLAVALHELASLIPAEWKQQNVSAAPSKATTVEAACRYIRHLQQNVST

Relative binding free energy, 0.15 kcal/mol:
TAATGCACGTGACGGT

Relative binding free energy, 0.03 kcal/mol:
TTCTCCACGTGTTTGG
GGGGACACGTGTGCTA

Relative binding free energy, -0.22 kcal/mol:
TCAGGCACGTGGGAGA

Relative binding free energy, -0.21 kcal/mol:
CCTGGCACGTGGGTTT
GTAGGCACGTGGGGAC

Relative binding free energy, 0.09 kcal/mol:
CGGGACACGTGCTGTG
GGTGCCACGTGTGTGT
TTTATCACGTGTTATT
GTGCACACGTGGATGT
TGAATCACGTGGGGGT

Relative binding free energy, 0.26 kcal/mol:
GCGTGCACGTGAGGTA
TGGCTCACGTGTCGCG
GTGTACACGTGAGAAG
ATGCTCACGTGAGTGT

Relative binding free energy, -0.27 kcal/mol:
TAGTGCACGTGGGTCG
AGTACCACGTGGGTAG

Relative binding free energy, 0.17 kcal/mol:
ATTCACACGTGTTTGG
AGGGTCACGTGTTGTG

Relative binding free energy, 0.07 kcal/mol:
GCGGTCACGTGGAGAG
TGAGGCACGTGAAATG
TAGATCACGTGGTGAG
CGGGGCACGTGATTTT
GAGGGCACGTGACGTT
TGCATCACGTGGTGTG
CGGATCACGTGGAGTT
CATGTCACGTGCGTTT
GGTTGCACGTGTGTGC

Relative binding free energy, 0.06 kcal/mol:
AAATGCACGTGTCAGG
GGAGGCACGTGTCTGT
AGCCTCACGTGGTGGG
GTGATCACGTGGTCGA

Relative binding free energy, 0.27 kcal/mol:
GTATACACGTGATAAG
TGTTACACGTGAGCGC

Relative binding free energy, -0.29 kcal/mol:
TTCGCCACGTGGGGTG
CTCGGCACGTGGGTTG

Relative binding free energy, 0.32 kcal/mol:
AGGCTCACGTGTGGTG
ACTGACACGTGAGTTG

Relative binding free energy, -0.15 kcal/mol:
ACTGGCACGTGTGTGT
TGAGGCACGTGGGAAC
TGGGCCACGTGGGGGA
CTGGGCACGTGTGCTG

Relative binding free energy, 0.22 kcal/mol:
TGGATCACGTGTTGAT
GGTAGCACGTGAGGTG
GTTAACACGTGAGTGG
GTAATCACGTGCGTTA

Relative binding free energy, 0.25 kcal/mol:
GGCGACACGTGAGGTG
CGTCTCACGTGTAGTG

Relative binding free energy, 0 kcal/mol:
TAGTGCACGTGCAGGG
AGTGGCACGTGTATCG

Relative binding free energy, -0.09 kcal/mol:
GTTGGCACGTGGTTTA
GTGAGCACGTGCGGTA
GGTAGCACGTGGATAT
TTAGGCACGTGATGCT
TATGTCACGTGTGTAC

Relative binding free energy, 0.1 kcal/mol:
AGTTACACGTGTTCAA
GTGAACACGTGTGCAT
AGTGACACGTGGACTG
TTTTTCACGTGCTGAG
TTTTACACGTGGGCGG
AGGTACACGTGTGGTG

Relative binding free energy, -0.17 kcal/mol:
GAGAGCACGTGTTTGT
ATGAGCACGTGGAGTG
CCTAGCACGTGGGGGG

Relative binding free energy, -0.07 kcal/mol:
TGGCGCACGTGGAAGT
CTCGTCACGTGGGGTT
CAGAGCACGTGGTAGG

Relative binding free energy, -0.08 kcal/mol:
GGAAGCACGTGTTAGT
GGAGACACGTGGCGGT
GCAAGCACGTGTGTAG
AGGTCCACGTGCAGGG

Relative binding free energy, 0.41 kcal/mol:
CGTTTCACGTGACTTG

Relative binding free energy, -0.24 kcal/mol:
TGGAGCACGTGGGCAA

Relative binding free energy, -0.05 kcal/mol:
TGGGCCACGTGATCGG
GGAGGCACGTGGGAAT
CGTTACACGTGTAGTG
AGATCCACGTGGTTGG
TGAGTCACGTGGTCAG

Relative binding free energy, -0.01 kcal/mol:
TCGGACACGTGTAGGG
TGAGGCACGTGTCGGT
TAGATCACGTGGGAGT
ACTAACACGTGGTGGT
ATGGACACGTGGGTAG
AGCGGCACGTGATAGG

Relative binding free energy, 0.04 kcal/mol:
GCCGGCACGTGTAGGT
GTTATCACGTGTTCAT
TTAATCACGTGGGTTT
CAATGCACGTGGTGGG
TGTGACACGTGTGGAT
CATAACACGTGGTTGT

Relative binding free energy, -0.14 kcal/mol:
TTAGCCACGTGTGGTG
CTAGGCACGTGGGGAG
CTAAGCACGTGGGGCG
GTTGGCACGTGGCAGT

Relative binding free energy, -0.12 kcal/mol:
AGACACACGTGGGTGG
TAGGGCACGTGGTTGC

Relative binding free energy, 0.05 kcal/mol:
TTTCGCACGTGGGCCT
AAGGCCACGTGTATTT
TATTGCACGTGAGTTA
GAATACACGTGGGTTG
TGGGTCACGTGGCGGA
GGAGACACGTGGTTTT
TCGGTCACGTGGTAGC
TTAACCACGTGAGGTG

Relative binding free energy, 0.43 kcal/mol:
GATTTCACGTGACTGT

Relative binding free energy, -0.11 kcal/mol:
CATAGCACGTGTTTTT
GTTAGCACGTGCAGTT

Relative binding free energy, 0.37 kcal/mol:
GTTCACACGTGATTGG

Relative binding free energy, -0.06 kcal/mol:
CTTCACACGTGGGTGT
CATGGCACGTGTGTTG
TTTACCACGTGGCGGT
GACACCACGTGGGGGG
GGGCGCACGTGGGAAA

Relative binding free energy, 0.11 kcal/mol:
TGGGACACGTGCTTTG
TCATGCACGTGTTGAT
AATTTCACGTGGAATG
TATGTCACGTGCTTGA
TATATCACGTGGTGAA

Relative binding free energy, -0.26 kcal/mol:
CTGGGCACGTGGCTAG
ATCGGCACGTGGTAGT

Relative binding free energy, 0.14 kcal/mol:
AATTACACGTGCTTGG
AGTCGCACGTGATGGA
GATTGCACGTGTTGCA
TTTAGCACGTGATTGA
GTACACACGTGTTTGG
AATTACACGTGTGGTT
TGAATCACGTGTTGGT
GGTGTCACGTGGCAAT
GGATGCACGTGATGGT
TGTTTCACGTGCACGT

Relative binding free energy, -0.18 kcal/mol:
GGAGGCACGTGTCTTG
TTTAGCACGTGGCTAG

Relative binding free energy, 0.21 kcal/mol:
TAGTTCACGTGCATTT
ATGTTCACGTGAAGAT
TTGAACACGTGACGTG
AGTTTCACGTGGGAGC
TTGTACACGTGAATAA

Relative binding free energy, 0.36 kcal/mol:
TGTTTCACGTGAGGCA

Relative binding free energy, 0.13 kcal/mol:
CATGTCACGTGGTTTT
ATGTGCACGTGACGGA
TGCGGCACGTGAGGTT
GGGTACACGTGTGTGG
TATATCACGTGTATGC
AGGGTCACGTGTGGAT

Relative binding free energy, 0.39 kcal/mol:
GTCTTCACGTGATGGA

Relative binding free energy, 0.16 kcal/mol:
AGGTACACGTGATCGT
GTGTACACGTGACAGG

Relative binding free energy, -0.13 kcal/mol:
TGTACCACGTGTGAGG

Relative binding free energy, 0.01 kcal/mol:
TTATACACGTGGACTG

Relative binding free energy, 0.35 kcal/mol:
TTTTCCACGTGAATTT
ATATTCACGTGATACG

Relative binding free energy, 0.31 kcal/mol:
CTGTACACGTGAATGG
GTTTTCACGTGGCGCG
GTTTTCACGTGATAGG
TTTCGCACGTGAAGGG
CAGTTCACGTGTTGGA
TTTTTCACGTGGAGTA

Relative binding free energy, -0.16 kcal/mol:
CGGCGCACGTGGTGGG
ACTGGCACGTGGGAGG
ATAGACACGTGGGTTT
TAGGGCACGTGGTTCA
GAAGGCACGTGGGGGA

Relative binding free energy, 0.29 kcal/mol:
GTCTTCACGTGTGGCT
GAGCTCACGTGTGTGG
AGGGTCACGTGAACTT

Relative binding free energy, -0.04 kcal/mol:
GGAGGCACGTGTCGGA
AGAGTCACGTGTTGTA
TTTGTCACGTGCTAGA
TGCGGCACGTGTATGC
TGAGGCACGTGCTTTG

Relative binding free energy, -0.2 kcal/mol:
AATAGCACGTGGTTCT
AAGGGCACGTGGGGAC

Relative binding free energy, 0.02 kcal/mol:
TGGATCACGTGTTAGG
GTCTGCACGTGCGTGT
GAAGGCACGTGTGAGA
GACTGCACGTGGTGTT
GATAGCACGTGTTGTC
TATCGCACGTGTCAGT

Relative binding free energy, -0.03 kcal/mol:
TGTGGCACGTGCGGAG
TATAGCACGTGGTAAG
TTTGGCACGTGTAATG
AGGAGCACGTGATTAG
AGTGACACGTGAGCGT

Relative binding free energy, -0.02 kcal/mol:
TGGACCACGTGTTGAT
TTAGGCACGTGTGATT
TTGACCACGTGCGTTG

Relative binding free energy, 0.18 kcal/mol:
GGTTACACGTGAGTTA
AGTCTCACGTGGCGTT
TAGTACACGTGTGAGA
ATGAACACGTGTAAGT
GGGTACACGTGGAGTG

Relative binding free energy, 0.12 kcal/mol:
TTTTCCACGTGTTAAT
ATATGCACGTGATGTG
TTTTGCACGTGACTTA
TTGTACACGTGTGGCT
AGTATCACGTGTAAGG
GGGGTCACGTGCCGAG
GAGGGCACGTGTAGAA
AAGGTCACGTGTGCAG
GGGGGCACGTGACAGT

Relative binding free energy, 0.08 kcal/mol:
GTATGCACGTGTATGT
ATAATCACGTGGGTCG
TAACTCACGTGGTAGT
CGGTACACGTGTTAAT

Relative binding free energy, 0.2 kcal/mol:
TGGCTCACGTGGATGT
TTCTTCACGTGGTAGC
TGCTACACGTGGAAGG
GAATTCACGTGGCAGG
TTCTTCACGTGGGGCT

Relative binding free energy, 0.3 kcal/mol:
TGGCGCACGTGAGAGC
GTTCTCACGTGTGGAT
GCTGTCACGTGAATGT

Relative binding free energy, 0.24 kcal/mol:
ATTTACACGTGAGGTG
TTATTCACGTGGCGAT
GGGCTCACGTGGTATG

Relative binding free energy, 0.23 kcal/mol:
GAAATCACGTGCGTTG
TGAATCACGTGTCAGT
TTTCGCACGTGAGGTG
CGTTTCACGTGTTATT

Relative binding free energy, 0.33 kcal/mol:
ATATTCACGTGTGGAA
AGTATCACGTGATGAA
TTTTTCACGTGTGTGG
AAGTTCACGTGCAGGT

Relative binding free energy, -0.1 kcal/mol:
CTAGTCACGTGGAGGG
GGCGGCACGTGGCGGA
GTGCGCACGTGGAGGG
CTTTGCACGTGCGGTT
AGAGGCACGTGGAGCT

Relative binding free energy, 0.34 kcal/mol:
GATTTCACGTGTTGAA

Relative binding free energy, -0.19 kcal/mol:
ATATGCACGTGGTTGA
